{
  "source": "PubChem BioAssay AID445",
  "about": "(National Center for Advancing Translational Sciences (NCATS), 2006)",
  "note": "About 40 (0.04%) of roughly 110,000 compounds were called active. Inconclusive results, whose numbers are uncertain, are shown with a selection of clear calls. The call rests on the fitted dose curve; in most records, active means well fitted curve in the direction sought with a large enough effect in the signal ratio (not every such curve was filed as active); inconclusive means small, poorly fitted or top-dose-only effect, or a change in a side signal; inactive means flat fitted curve, though single readings scatter; the % refers to the signal ratio. Potencies beside an inconclusive call are fits to weak or partial responses and may not hold up. Potency means the concentration at half of the fitted maximal effect.",
  "data": [
    {"assay": "IkB Signaling;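 on IkBa stabilization activation: 0% = basal untreated cells and 100% = reference inhibitor full response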", "conditions": "ABC-DLBCL IkBa-CBG/CBR dual luciferase ratio (green luciferase fused to IkBa over red control in OCI-Ly3 lymphoma cells), 4 h; IkBa stabilization activation: at 57.1 µM (top of the series), scaled: untreated 0%, proteasome inhibitor 100% unless noted", "how_it_was_run": "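Curves were fitted separately to fusion (green), unfused (red) and ratio luminescence, then classed by r2, magnitude and activity. Cells: OCI-Ly3, 4 h compound plus doxycycline at 37C; 10 uM MG-132 defined full response.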", "values": [
      {"smiles": "Cc1ccc(S(=O)(=O)N[C@@H](CCCCN)C(=O)CCl)cc1", "Potency": "inconclusive: 31.6 µM [rising, partial curve]"},
      {"smiles": "CCOc1ccc2nc(NC(=O)c3cccn(Cc4ccc(C)cc4)c3=O)sc2c1", "IkBa stabilization activation": "inactive"},
      {"smiles": "Nc1c(C(=O)Nc2ccc(F)c(Cl)c2)sc2nc3c(cc12)N1CCC3CC1", "IkBa stabilization activation": "inconclusive: -4.93% [signal inhibitor]"},
      {"smiles": "CC(C)(O)[C@H]1O[C@@H]2CC[C@]3(C)[C@@]4(C)c5[nH]c6ccccc6c5C[C@@H]4CC[C@]3(O)C2=CC1=O", "IkBa stabilization activation": "inconclusive: 0.471% [signal inhibitor]"},
      {"smiles": "N[C@H](CCl)C(=O)O", "IkBa stabilization activation": "inactive"},
      {"smiles": "CCCCC/C=C\\C/C=C\\C/C=C\\C/C=C\\CCCC(=O)Nc1ccc(O)cc1", "IkBa stabilization activation": "inconclusive: 0.967% [signal inhibitor]"},
      {"smiles": "O=C(Nc1ccc2c(c1)OCO2)c1cn(Cc2ccc(F)cc2)nn1", "IkBa stabilization activation": "inactive"},
      {"smiles": "O=C(Nc1ccon1)c1cccn(Cc2cccc([N+](=O)[O-])c2)c1=O", "IkBa stabilization activation": "inconclusive: -0.375% [signal activator]"},
      {"smiles": "O=C(Nc1ccc2c(c1)OCO2)c1cccn(Cc2ccccc2)c1=O", "IkBa stabilization activation": "inconclusive: 0.396% [signal inhibitor]"},
      {"smiles": "NCCc1c[nH]c2ccccc12", "IkBa stabilization activation": "inactive"},
      {"smiles": "CCCCCn1c(=O)c(C(=O)Nc2ccncc2)c(O)c2ccccc21", "IkBa stabilization activation": "inconclusive: -1.69% [signal inhibitor]"},
      {"smiles": "O=S(=O)(NCCO)c1cc[c]([Sb](=[O])([OH])[OH])cc1", "IkBa stabilization activation": "inactive: 0.396% [at 11.4 µM, scaled: untreated 0%, proteasome inhibitor 100%]"},
      {"smiles": "FC(F)(F)c1ccc2c(c1)ncn2C1CCN(Cc2nnnn2C2CCCCC2)CC1", "IkBa stabilization activation": "inconclusive: 3.68% [signal inhibitor]"},
      {"smiles": "C=CCOC(=O)COc1cc(C)cc2oc(=O)c3c(c12)CCC3", "IkBa stabilization activation": "inactive"},
      {"smiles": "Cc1ccc(-c2nc(CN3C(=O)CN=C(c4ccccc4Cl)c4cc(Cl)ccc43)c(C)o2)cc1", "IkBa stabilization activation": "inconclusive: -0.412% [signal inhibitor]"},
      {"smiles": "Cc1cccc(Cn2cccc(C(=O)Nc3nnc(C)s3)c2=O)c1", "IkBa stabilization activation": "inconclusive: 2.23% [signal inhibitor]"},
      {"smiles": "O=C1CC(c2ccc(C(F)(F)F)cc2)c2c(c3ccccc3oc2=O)O1", "note": "(stereo unspecified)", "IkBa stabilization activation": "inconclusive: 8.61% [signal inhibitor]"},
      {"smiles": "C[C@]12CN(CC[N+](C)(C)C)C[C@]1(C)[C@@H]1CC[C@@H]2O1", "IkBa stabilization activation": "inactive: -1.24% [at 11.4 µM, scaled: untreated 0%, proteasome inhibitor 100%]"},
      {"smiles": "ClC1=C(Cl)C2(Cl)C3C4C=CC(C4)C3C1(Cl)C2(Cl)Cl", "note": "(stereo unspecified)", "IkBa stabilization activation": "inconclusive: 7.33% [signal activator]"},
      {"smiles": "CCC(C)(C)n1nnnc1C(c1cccs1)N1CC=C(c2ccc(F)cc2)CC1", "note": "(stereo unspecified)", "IkBa stabilization activation": "inconclusive: 4.61% [signal inhibitor]"},
      {"smiles": "COCCCNC(=O)c1c(NC(=O)c2ccco2)n(Cc2ccccc2)c2nc3ccccc3nc12", "Potency": "inconclusive: 25.1 µM [rising, partial curve]"},
      {"smiles": "COc1ccc2c(c1)[nH]c1c(C)nccc12", "IkBa stabilization activation": "inconclusive: -3.45% [signal inhibitor] [at 25.6 µM, scaled: untreated 0%, proteasome inhibitor 100%]"},
      {"smiles": "Oc1c(Cl)c(Cl)c(Cl)c(Cl)c1Cl", "IkBa stabilization activation": "inconclusive: -3.15% [signal inhibitor]"},
      {"smiles": "CN=C=S", "IkBa stabilization activation": "inactive"},
      {"smiles": "Cc1cc(N2CCOCC2)nc2ccc(NC(=O)CCC(=O)N3CCC4(CC3)OCCO4)cc12", "IkBa stabilization activation": "inactive"},
      {"smiles": "CCN(CC)C(=O)c1ccc(NC(=O)COc2ccc(-c3nn(C)c(=O)c4ccccc34)cc2)cc1", "IkBa stabilization activation": "inconclusive: 8.59% [signal inhibitor]"},
      {"smiles": "CN(C)CCCNc1c2c(nc3ccc(Cl)cc13)CCCC2", "IkBa stabilization activation": "inactive: -1.58% [at 11.4 µM, scaled: untreated 0%, proteasome inhibitor 100%]"},
      {"smiles": "O=C(C1CC(c2ccc(Cl)c(Cl)c2)=NO1)N1CCC2(CC1)OCCO2", "note": "(stereo unspecified)", "IkBa stabilization activation": "inconclusive: 1.54% [signal inhibitor]"},
      {"smiles": "O=C(Nc1ccc(Br)cc1C(=O)c1ccccc1Cl)c1ccc(Br)cc1", "IkBa stabilization activation": "inactive"},
      {"smiles": "COc1ccccc1-c1nn2c(=O)cc(CN3CCN(C(=O)COc4ccccc4Cl)CC3)nc2s1", "IkBa stabilization activation": "inconclusive: -0.554% [signal inhibitor]"},
      {"smiles": "Cc1ccccc1-c1nc(CN2C(=O)CN=C(c3ccccc3)c3ccccc32)c(C)o1", "IkBa stabilization activation": "inconclusive: -0.197% [signal inhibitor]"},
      {"smiles": "COc1ccc(C[C@@H]2C(=O)N[C@H](C)C(=O)N(C)[C@@H]3C(=O)N(C)[C@@H](Cc4ccc(O)c(c4)Oc4ccc(cc4)[C@H]3O)C(=O)N[C@@H](C)C(=O)N[C@H](C)C(=O)N2C)cc1", "IkBa stabilization activation": "inconclusive: -3.1% [signal inhibitor] [at 11.4 µM, scaled: untreated 0%, proteasome inhibitor 100%]"},
      {"smiles": "[N-]=[N+]=[N-]", "IkBa stabilization activation": "inactive"},
      {"smiles": "Cc1ccc(OP(=O)(Oc2ccc(C)cc2)Oc2ccc(C)cc2)cc1", "IkBa stabilization activation": "inactive"},
      {"smiles": "CC(C)[C@@]1(NC(=O)[C@H]2C[C@H]3c4cccc5[nH]cc(c45)C[C@@H]3N(C)C2)O[C@]2(O)[C@H]3CCCN3C(=O)[C@H](Cc3ccccc3)N2C1=O", "Potency": "inconclusive: 39.8 µM [signal inhibitor, partial curve, poor fit]"},
      {"smiles": "CN(CCC(=O)O)C1=Nc2ccc(Cl)cc2C(c2ccccc2)=[N+]([O-])C1", "IkBa stabilization activation": "inactive: -0.807% [at 11.4 µM, scaled: untreated 0%, proteasome inhibitor 100%]"},
      {"smiles": "CC(=O)C1=C(O)[C@@H]2[C@@H]3c4c[nH]c5cccc(c45)C[C@@H]3C(C)(C)N2C1=O", "IkBa stabilization activation": "inactive"},
      {"smiles": "COCCOC(=O)c1c(N)n(Cc2ccc(OC)cc2)c2nc3ccccc3nc12", "IkBa stabilization activation": "inactive"},
      {"smiles": "O=c1c2ccccc2nc(/C=C/c2cccc3ccccc23)n1-c1ccc(Cl)cc1", "IkBa stabilization activation": "inconclusive: 10.4% [signal inhibitor]"},
      {"smiles": "Cc1cccn2c(=O)c3c(nc12)N1CCC(Cc2ccccc2)CC1C1(C3)C(=O)N(C)C(=O)N(C)C1=O", "note": "(stereo unspecified)", "IkBa stabilization activation": "inactive"},
      {"smiles": "Cc1cc(C)cc(NC(=O)CN2C(=O)CN=C(c3ccccc3)c3cc(Cl)ccc32)c1", "IkBa stabilization activation": "inconclusive: 0.672% [signal inhibitor]"}
    ]}
  ]
}
